# Reference: the supplement of paper PMC8728848
# This is one part of the list.
# Experiments:
# Assay in all cases: glycan array binding signal (z-score within array); higher = stronger binding
# Details in all cases: glycan notation: IUPAC condensed, linker removed
# [1] = target: Gal(a1-3)[Gal(a1-4)]Gal(b1-4)GlcNAc
# In short: (§1)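 Glycan array data were curated from 3228 arrays in the Consortium for Functional Glycomics database and kept only where the protein sequence was available. Glycan names were converted to IUPAC-condensed notation, and columns mapping to the same glycan were averaged. The binding signal is a within-array Z-score, averaged across arrays of the same protein sequence at different concentrations or buffers and across linkers. Negative Z-scores can be read as non-binding.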
# [2] = target: Gal(a1-4)Gal(b1-3)GlcNAc(b1-2)Man(a1-3)[Gal(a1-4)Gal(b1-3)GlcNAc(b1-2)Man(a1-6)]Man(b1-4)GlcNAc(b1-4)GlcNAc
# In short: as §1
# [3] = target: Gal(a1-4)Gal(b1-4)Glc
# In short: as §1
# [4] = target: Gal(a1-4)Gal(b1-4)GlcNAc
# In short: as §1
# [5] = target: Gal(a1-4)Gal(b1-4)GlcNAc(b1-2)Man(a1-3)[Gal(a1-4)Gal(b1-4)GlcNAc(b1-2)Man(a1-6)]Man(b1-4)GlcNAc(b1-4)GlcNAc
# In short: as §1
# [6] = target: Gal(a1-4)Gal(b1-4)GlcNAc(b1-3)Gal(b1-4)Glc
# In short: as §1
# [7] = target: Gal(a1-4)GlcNAc
# In short: as §1
# [8] = target: Gal(a1-6)Glc
# In short: as §1
# [9] = target: Gal(b1-2)Gal
# In short: as §1
# [10] = target: Gal(b1-3)Gal
# In short: as §1
# [11] = target: Gal(b1-3)Gal(b1-4)GlcNAc
# In short: as §1
# [12] = target: Gal(b1-3)GalNAc
# In short: as §1
# [13] = target: Gal(b1-3)GalNAc(a1-3)[Fuc(a1-2)]Gal(b1-4)Glc
# In short: as §1
# [14] = target: Gal(b1-3)GalNAc(a1-3)[Fuc(a1-2)]Gal(b1-4)GlcNAc
# In short: as §1
# [15] = target: Gal(b1-3)GalNAc(b1-3)Gal
# In short: as §1
# [16] = target: Gal(b1-3)GalNAc(b1-3)Gal(a1-4)Gal(b1-4)Glc
# In short: as §1
# [17] = target: Gal(b1-3)GalNAc(b1-4)Gal(b1-4)Glc
# In short: as §1
# [18] = target: Gal(b1-3)GalNAc(b1-4)[Neu5Ac(a2-3)]Gal(b1-4)Glc
# In short: as §1
# [19] = target: Gal(b1-3)GlcNAc
# In short: as §1
# [20] = target: Gal(b1-3)GlcNAc(a1-3)Gal(b1-4)GlcNAc
# In short: as §1
# [21] = target: Gal(b1-3)GlcNAc(a1-6)Gal(b1-4)GlcNAc
# In short: as §1
# [22] = target: Gal(b1-3)GlcNAc(b1-2)Man
# In short: as §1
# [23] = target: Gal(b1-3)GlcNAc(b1-2)Man(a1-3)[Gal(b1-3)GlcNAc(b1-2)Man(a1-6)]Man(b1-4)GlcNAc(b1-4)GlcNAc
# In short: as §1
# [24] = target: Gal(b1-3)GlcNAc(b1-2)Man(a1-3)[Gal(b1-3)GlcNAc(b1-2)Man(a1-6)]Man(b1-4)GlcNAc(b1-4)[Fuc(a1-6)]GlcNAc
# In short: as §1
# [25] = target: Gal(b1-3)GlcNAc(b1-2)Man(a1-3)[GlcNAc(b1-4)][Gal(b1-3)GlcNAc(b1-2)Man(a1-6)]Man(b1-4)GlcNAc(b1-4)GlcNAc
# In short: as §1
# [26] = target: Gal(b1-3)GlcNAc(b1-2)[Gal(b1-3)GlcNAc(b1-6)]Man(a1-6)[Gal(b1-3)GlcNAc(b1-2)Man(a1-3)]Man(b1-4)GlcNAc(b1-4)GlcNAc
# In short: as §1
# [27] = target: Gal(b1-3)GlcNAc(b1-3)Gal(b1-3)GlcNAc
# In short: as §1
# [28] = target: Gal(b1-3)GlcNAc(b1-3)Gal(b1-4)Glc
# In short: as §1
# [29] = target: Gal(b1-3)GlcNAc(b1-3)Gal(b1-4)GlcNAc
# In short: as §1
# [30] = target: Gal(b1-3)GlcNAc(b1-3)Gal(b1-4)GlcNAc(b1-2)Man(a1-3)[Gal(b1-3)GlcNAc(b1-3)Gal(b1-4)GlcNAc(b1-2)Man(a1-6)]Man(b1-4)GlcNAc(b1-4)GlcNAc
# In short: as §1
# [31] = target: Gal(b1-3)GlcNAc(b1-3)Gal(b1-4)GlcNAc(b1-2)[Gal(b1-3)GlcNAc(b1-3)Gal(b1-4)GlcNAc(b1-6)]Man(a1-6)[Gal(b1-3)GlcNAc(b1-3)Gal(b1-4)GlcNAc(b1-2)Man(a1-3)]Man(b1-4)GlcNAc(b1-4)[Fuc(a1-6)]GlcNAc
# In short: as §1
# [32] = target: Gal(b1-3)GlcNAc(b1-3)Gal(b1-4)GlcNAc(b1-3)Gal(b1-4)GlcNAc(b1-2)[Gal(b1-3)GlcNAc(b1-3)Gal(b1-4)GlcNAc(b1-3)Gal(b1-4)GlcNAc(b1-6)]Man(a1-6)[Gal(b1-3)GlcNAc(b1-3)Gal(b1-4)GlcNAc(b1-3)Gal(b1-4)GlcNAc(b1-2)Man(a1-3)]Man(b1-4)GlcNAc(b1-4)[Fuc(a1-6)]GlcNAc
# In short: as §1
# [33] = target: Gal(b1-3)GlcNAc(b1-3)Gal(b1-4)GlcNAc(b1-6)[Gal(b1-3)GlcNAc(b1-3)]Gal(b1-4)Glc
# In short: as §1
# [34] = target: Gal(b1-3)GlcNAc(b1-3)Gal(b1-4)[Fuc(a1-3)]GlcNAc
# In short: as §1
# [35] = target: Gal(b1-3)GlcNAc(b1-3)Gal(b1-4)[Fuc(a1-3)]GlcNAc(b1-6)[Gal(b1-3)GlcNAc(b1-3)]Gal(b1-4)Glc
# In short: as §1
# [36] = target: Gal(b1-3)GlcNAc(b1-3)GalNAc
# In short: as §1
# [37] = target: Gal(b1-3)GlcNAc(b1-6)Gal(b1-4)GlcNAc
# In short: as §1
# [38] = target: Gal(b1-3)GlcNAc(b1-6)GalNAc
# In short: as §1
binder,measurement,setting,value
PX14343B-bfa-546-20-546 (Bacteroides fragilis) (protein) CDLERYPLTDLSEETFWNSESNAELALTSLYRGSLTDGVEYNPSDWWSYHGMIMMEHLSDNAFDRRGENNPFFKISSGNLTADNAFIKRYWETSYKRIGYCNRFLVGIQNSSESEKKTRMIAEARFLRATQYFYLASYFKNVPLVENVLTGEEANNVTKTSQADILKWCVTEFTAAAADLPRFSAIPAGEAGRACKQAALAFLGRTCMLQKDWKSGAKAFHDIMELGDNAINANYQELFYPSTGTSNKENIFYIQYLENYLGTGLPQHALSAKDGGWSLVNPAADLYESYEFKDGTPFSYDDPRYDPSNLGKDRDPRLDYTIYYNGAIFMGTEYKMSPDYSAAKKEKLDYTSEASRTGFMMRKYFEESTPINDVQSANGLTPVIRYAEVLLGYLECLVEDNQTITQGILDETINAVRGRASVNMPPVTEVTPAKLREIVRHERRIELAMEGIRYWDIMRWGIAHEVLSQKIWGAPYPGSTQYATTTKEVDPTGNYRWYVGKRAFRNPTDYTWPIPQSEQNINPNLRD,glycan array binding signal (z-score),[1],-0.118
same,glycan array binding signal (z-score),[2],-0.115
same,glycan array binding signal (z-score),[3],-0.109
same,glycan array binding signal (z-score),[4],-0.12
same,glycan array binding signal (z-score),[5],-0.115
same,glycan array binding signal (z-score),[6],-0.128
same,glycan array binding signal (z-score),[7],-0.12
same,glycan array binding signal (z-score),[8],-0.127
same,glycan array binding signal (z-score),[9],-0.114
same,glycan array binding signal (z-score),[10],-0.113
same,glycan array binding signal (z-score),[11],-0.113
same,glycan array binding signal (z-score),[12],-0.127
same,glycan array binding signal (z-score),[13],-0.122
same,glycan array binding signal (z-score),[14],-0.121
same,glycan array binding signal (z-score),[15],-0.126
same,glycan array binding signal (z-score),[16],-0.126
same,glycan array binding signal (z-score),[17],-0.115
same,glycan array binding signal (z-score),[18],-0.115
same,glycan array binding signal (z-score),[19],-0.115
same,glycan array binding signal (z-score),[20],-0.129
same,glycan array binding signal (z-score),[21],-0.121
same,glycan array binding signal (z-score),[22],-0.12
same,glycan array binding signal (z-score),[23],-0.106
same,glycan array binding signal (z-score),[24],-0.115
same,glycan array binding signal (z-score),[25],-0.122
same,glycan array binding signal (z-score),[26],-0.117
same,glycan array binding signal (z-score),[27],-0.124
same,glycan array binding signal (z-score),[28],-0.119
same,glycan array binding signal (z-score),[29],-0.123
same,glycan array binding signal (z-score),[30],-0.127
same,glycan array binding signal (z-score),[31],-0.111
same,glycan array binding signal (z-score),[32],-0.113
same,glycan array binding signal (z-score),[33],-0.093
same,glycan array binding signal (z-score),[34],-0.124
same,glycan array binding signal (z-score),[35],-0.131
same,glycan array binding signal (z-score),[36],-0.12
same,glycan array binding signal (z-score),[37],-0.115
same,glycan array binding signal (z-score),[38],-0.123
